Laboratory results from the supplement of paper PMC8728848.
This is one part of the list.

Columns and labels:
Experiment in all cases: glycan array binding signal (z-score within array); higher = stronger binding
Settings in all cases: glycan notation: IUPAC condensed, linker removed
[1] = target: Gal(b1-4)GlcNAc(b1-3)Gal(b1-4)GlcNAc(b1-3)[Gal(b1-4)GlcNAc(b1-3)Gal(b1-4)GlcNAc(b1-6)]GalNAc
Summary of the method: (§1)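 The binding signal is a Z-score computed within each array. Data were drawn from 3228 arrays in the Consortium for Functional Glycomics database, restricted to those with a known protein sequence. Scores were averaged over arrays of the same protein sequence at different concentrations or buffers, and over linkers, and negative values can be taken as non-binding.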

[2] = target: Gal(b1-4)GlcNAc(b1-3)Gal(b1-4)GlcNAc(b1-6)[Gal(b1-3)]GalNAc
Summary of the method: as §1

[3] = target: Gal(b1-4)GlcNAc(b1-3)Gal(b1-4)[Fuc(a1-3)]GlcNAc(b1-3)Gal(b1-4)[Fuc(a1-3)]GlcNAc
Summary of the method: as §1

[4] = target: Gal(b1-4)GlcNAc(b1-3)GalNAc
Summary of the method: as §1

[5] = target: Gal(b1-4)GlcNAc(b1-3)[Fuc(a1-3)GlcNAc(b1-6)]Gal(b1-4)Glc
Summary of the method: as §1

[6] = target: Gal(b1-4)GlcNAc(b1-3)[Gal(b1-4)GlcNAc(b1-6)]Gal(b1-4)GlcNAc
Summary of the method: as §1

[7] = target: Gal(b1-4)GlcNAc(b1-3)[GlcNAc(b1-6)]Gal(b1-4)GlcNAc
Summary of the method: as §1

[8] = target: Gal(b1-4)GlcNAc(b1-6)Gal(b1-4)GlcNAc
Summary of the method: as §1

[9] = target: Gal(b1-4)GlcNAc(b1-6)GalNAc
Summary of the method: as §1

[10] = target: Gal(b1-4)GlcNAc(b1-6)[Gal(b1-3)]GalNAc
Summary of the method: as §1

[11] = target: Gal(b1-4)GlcNAc(b1-6)[Gal(b1-4)GlcNAc(b1-3)]GalNAc
Summary of the method: as §1

Gal(b1-4)GlcNAc6P = target: Gal(b1-4)GlcNAc6P
Summary of the method: as §1

Gal(b1-6)Gal = target: Gal(b1-6)Gal
Summary of the method: as §1

Gal3S(b1-3)GalNAc = target: Gal3S(b1-3)GalNAc
Summary of the method: as §1

Gal3S(b1-3)GlcNAc = target: Gal3S(b1-3)GlcNAc
Summary of the method: as §1

[12] = target: Gal3S(b1-3)[Fuc(a1-4)]GlcNAc
Summary of the method: as §1

Gal3S(b1-4)Glc = target: Gal3S(b1-4)Glc
Summary of the method: as §1

Gal3S(b1-4)Glc6S = target: Gal3S(b1-4)Glc6S
Summary of the method: as §1

Gal3S(b1-4)GlcNAc = target: Gal3S(b1-4)GlcNAc
Summary of the method: as §1

[13] = target: Gal3S(b1-4)[Fuc(a1-3)]Glc6S
Summary of the method: as §1

[14] = target: Gal3S(b1-4)[Fuc(a1-3)]GlcNAc
Summary of the method: as §1

[15] = target: Gal3S(b1-4)[Fuc(a1-3)]GlcNAc6S
Summary of the method: as §1

Gal3S4S(b1-4)GlcNAc = target: Gal3S4S(b1-4)GlcNAc
Summary of the method: as §1

Gal3S6S(b1-4)GlcNAc = target: Gal3S6S(b1-4)GlcNAc
Summary of the method: as §1

Gal3S6S(b1-4)GlcNAc6S = target: Gal3S6S(b1-4)GlcNAc6S
Summary of the method: as §1

Gal4S(b1-4)GlcNAc = target: Gal4S(b1-4)GlcNAc
Summary of the method: as §1

Gal4S6S(b1-4)GlcNAc = target: Gal4S6S(b1-4)GlcNAc
Summary of the method: as §1

Gal6P(b1-4)GlcNAc = target: Gal6P(b1-4)GlcNAc
Summary of the method: as §1

Gal6S(b1-3)GlcNAc = target: Gal6S(b1-3)GlcNAc
Summary of the method: as §1

Gal6S(b1-3)GlcNAc6S = target: Gal6S(b1-3)GlcNAc6S
Summary of the method: as §1

Gal6S(b1-4)Glc = target: Gal6S(b1-4)Glc
Summary of the method: as §1

Gal6S(b1-4)Glc6S = target: Gal6S(b1-4)Glc6S
Summary of the method: as §1

Gal6S(b1-4)GlcNAc = target: Gal6S(b1-4)GlcNAc
Summary of the method: as §1

Gal6S(b1-4)GlcNAc6S = target: Gal6S(b1-4)GlcNAc6S
Summary of the method: as §1

GalNAc(a1-3)Gal = target: GalNAc(a1-3)Gal
Summary of the method: as §1

GalNAc(a1-3)GalNAc = target: GalNAc(a1-3)GalNAc
Summary of the method: as §1

[16] = target: GalNAc(a1-3)GalNAc(b1-3)Gal(a1-4)Gal(b1-4)Glc
Summary of the method: as §1

[17] = target: GalNAc(a1-3)GalNAc(b1-3)Gal(a1-4)Gal(b1-4)GlcNAc
Summary of the method: as §1

GalNAc(b1-3)Gal = target: GalNAc(b1-3)Gal
Summary of the method: as §1

[18] = target: GalNAc(b1-3)Gal(a1-4)Gal(b1-4)GlcNAc
Summary of the method: as §1

[19] = target: GalNAc(b1-3)Gal(a1-4)Gal(b1-4)GlcNAc(b1-3)Gal(b1-4)Glc
Summary of the method: as §1

[20] = target: GalNAc(b1-3)Gal(a1-6)Gal(b1-4)Glc
Summary of the method: as §1

GalNAc(b1-3)GalNAc = target: GalNAc(b1-3)GalNAc
Summary of the method: as §1

GalNAc(b1-3)GlcNAc = target: GalNAc(b1-3)GlcNAc
Summary of the method: as §1

GalNAc(b1-4)Gal(b1-4)Glc = target: GalNAc(b1-4)Gal(b1-4)Glc
Summary of the method: as §1

B1: Mg1lysM (Mycosphaerella graminicola) (protein)
chain: QRNPITITPQFDCGATNSQQYVARSGDTLTKIAQEIYHDVVGVCDIARANNLADPNRIDAGTPYTIPINCQTYDRNSCL
[1]
  glycan array binding signal (z-score): -0.075
[2]
  glycan array binding signal (z-score): -0.088
[3]
  glycan array binding signal (z-score): -0.056
[4]
  glycan array binding signal (z-score): -0.056
[5]
  glycan array binding signal (z-score): -0.094
[6]
  glycan array binding signal (z-score): -0.071
[7]
  glycan array binding signal (z-score): -0.092
[8]
  glycan array binding signal (z-score): -0.072
[9]
  glycan array binding signal (z-score): -0.053
[10]
  glycan array binding signal (z-score): -0.072
[11]
  glycan array binding signal (z-score): -0.061
Gal(b1-4)GlcNAc6P
  glycan array binding signal (z-score): -0.091
Gal(b1-6)Gal
  glycan array binding signal (z-score): -0.088
Gal3S(b1-3)GalNAc
  glycan array binding signal (z-score): -0.04
Gal3S(b1-3)GlcNAc
  glycan array binding signal (z-score): -0.07
[12]
  glycan array binding signal (z-score): -0.061
Gal3S(b1-4)Glc
  glycan array binding signal (z-score): -0.059
Gal3S(b1-4)Glc6S
  glycan array binding signal (z-score): -0.067
Gal3S(b1-4)GlcNAc
  glycan array binding signal (z-score): -0.071
[13]
  glycan array binding signal (z-score): -0.033
[14]
  glycan array binding signal (z-score): -0.019
[15]
  glycan array binding signal (z-score): -0.071
Gal3S4S(b1-4)GlcNAc
  glycan array binding signal (z-score): -0.098
Gal3S6S(b1-4)GlcNAc
  glycan array binding signal (z-score): -0.059
Gal3S6S(b1-4)GlcNAc6S
  glycan array binding signal (z-score): -0.056
Gal4S(b1-4)GlcNAc
  glycan array binding signal (z-score): -0.084
Gal4S6S(b1-4)GlcNAc
  glycan array binding signal (z-score): -0.065
Gal6P(b1-4)GlcNAc
  glycan array binding signal (z-score): -0.068
Gal6S(b1-3)GlcNAc
  glycan array binding signal (z-score): -0.081
Gal6S(b1-3)GlcNAc6S
  glycan array binding signal (z-score): -0.065
Gal6S(b1-4)Glc
  glycan array binding signal (z-score): -0.082
Gal6S(b1-4)Glc6S
  glycan array binding signal (z-score): -0.07
Gal6S(b1-4)GlcNAc
  glycan array binding signal (z-score): -0.051
Gal6S(b1-4)GlcNAc6S
  glycan array binding signal (z-score): -0.069
GalNAc(a1-3)Gal
  glycan array binding signal (z-score): -0.076
GalNAc(a1-3)GalNAc
  glycan array binding signal (z-score): 0.308
[16]
  glycan array binding signal (z-score): -0.058
[17]
  glycan array binding signal (z-score): -0.056
GalNAc(b1-3)Gal
  glycan array binding signal (z-score): -0.082
[18]
  glycan array binding signal (z-score): -0.197
[19]
  glycan array binding signal (z-score): -0.074
[20]
  glycan array binding signal (z-score): -0.03
GalNAc(b1-3)GalNAc
  glycan array binding signal (z-score): -0.062
GalNAc(b1-3)GlcNAc
  glycan array binding signal (z-score): -0.076
GalNAc(b1-4)Gal(b1-4)Glc
  glycan array binding signal (z-score): -0.057
